The other results are listed elsewhere or left out.
B1: chr6:17764380:17764481:-|CDS|ENSG00000137177|msi1|FALSE|unique (ssRNA)
RNA: GGGAGUUCUACAGUCCGACGAUCCCAGAGCAUCCCUGAGAAAAACUCCAAAUCACUGUGCAGGACUGGCUCAUGUUCAGAACUAGAUGCCUGCCCCAGCAAAAUUAGCCAGCCAGCCAGGGGAUUCUGCCCCAGGGAGGUGACCAACAGAGGAUUGAGCAUCA
B2: chr6:7881277:7881391:+|3pUTR|ENSG00000153162|unk|FALSE|unique (ssRNA)
RNA: GGGAGUUCUACAGUCCGACGAUCGCUGUUUAUGAACGGAAAUCAUGAUUUCCCUUGUAGAAAGUGAGGCUCAGAUUAAAUUUUAGAAUAUUUUCUAAAUGUCUUUUUCACAAUCAUGUACUGGGAAGGCAAUUUCAUACUAAACAACAGAGGAUUGAGCAUCA
B3: ENSG00000198589:be:win_5551|CDS|ENSG00000198589|bound_else_gene|NA|bound_elsewhere_windowed (ssRNA)
RNA: GGGAGUUCUACAGUCCGACGAUCGUGGAAUUGGUUAUGCUACUGUGUUCUCAGGAGUGGCAAAAUUCUAUUCAGAAGAAUGCAGGCCUUGCUUUUAUCGAACUUGUCAAUGAAGGAAGGUUGCUUAGCCAGACAAUGAAGGAUCAACAGAGGAUUGAGCAUCA
B4: chr2:73228009:73228453:-|three_prime_utr|ENSG00000135617|control|control|control (ssRNA)
RNA: GGGAGUUCUACAGUCCGACGAUCUAAGUGACUCUGAGCUGGGAAGGGGAAACCCAGGAAUUUUGCUACUUGGAAUUUGGAGAUAGCAUCUGGGGACAAGUGGAGCCAGGUAGAGGAAAAGGGUUUGGGCGUUGCUAGGCUGAACAACAGAGGAUUGAGCAUCA
B5: chrX:65740646:65740790:+|3pUTR|ENSG00000147065|msi1|total|mutant (ssRNA)
RNA: GGGAGUUCUACAGUCCGACGAUCGGCCAUUCUAUUGUGGCAAGGCUGAGCCGAAGAUCCUACCCCAAUUCCUUGCCGGAGUACCGGCCGGUCUAAAGUGAGCUCUAUGGGCAGAUCUACCCCUUACUUAUUAUUCCAGAUCUGCAACAGAGGAUUGAGCAUCA
B6: chr11:44260439:44264853:-|three_prime_utr|ENSG00000052850|control|control|control (ssRNA)
RNA: GGGAGUUCUACAGUCCGACGAUCGACACCAUGGGCCACGCCCAUGUUUUCCAGGCCCCCAGCCUCCCACUCGACUUUCCUCUUAGGAACCUGGCCUGGGCCAGGGGCCUGACCCUCAGCACUUUCAGCCGCCCCAAGUCUGAGCAACAGAGGAUUGAGCAUCA
B7: chr5:154817497:154817598:+|3pUTR|ENSG00000155506|msi1_unk|FALSE|overlapping (ssRNA)
RNA: GGGAGUUCUACAGUCCGACGAUCUUAUUGAGAGUAUCUGCUUUCCAGGCUGAAGUGAUUCAUUCAUUAUUCUAGUCCUGCUUUAGUCCUUUGUAAUUUGUGGUAAUUAUGCUUUUCUUUUUAAUACAAAAAAAUGUAUAAAAACAACAGAGGAUUGAGCAUCA
B8: chr3:48432659:48432768:-|CDS|ENSG00000164051|unk|FALSE|unique (ssRNA)
RNA: GGGAGUUCUACAGUCCGACGAUCAGUCCCCCGACCAGAGACAGAGAUGUAGAUGUCCUUUCAGCUGCCUUGAAAGAGCAGCUUAGUCAUUCCAGGCAAGUCCAUUCAUGUCUAGAAGGCUUACGAGAGCAGCUUGAUGGCCUACAACAGAGGAUUGAGCAUCA
B9: chr3:98799072:98799370:-|3pUTR|ENSG00000057019|msi1|FALSE|unique (ssRNA)
RNA: GGGAGUUCUACAGUCCGACGAUCCAAAGCAUCGUUUUAAAGCACAUGGCCUUUUUUUUUUAAUUAUUAGUGGUAGUAAUAUAUAGAAUGUAUUACAUAACUGUCACUGAAGUGGUUGGGGAAAAUGUGGUGACUGAGGUACAGCAACAGAGGAUUGAGCAUCA
B10: chr7:149103614:149105566:-|CDS|ENSG00000204947|control|control|control (ssRNA)
RNA: GGGAGUUCUACAGUCCGACGAUCGAGACCCCAGGGCGCUUAGAAAUUCCCACAGGGCCAAGAUGCUAUUCCUGCUAUGUCUGUAGGAAAGUCUUCCAAGUAAGGAGGGAUUUGCUAAAGCACAAACGGAGCCACUCCAAGAGCCAACAGAGGAUUGAGCAUCA
B11: chr16:46798953:46799054:-|3pUTR|ENSG00000155330|unk|FALSE|unique (ssRNA)
RNA: GGGAGUUCUACAGUCCGACGAUCUCUAUAUUUUUUUCUUUGCCUUAUUGCACUGGUUGGGACUUUUUGCCUUGAUCCAGUUGUAGGGGGGAAACAUUCAGUCAUUAAGCAUUAAAUAACUUUGUUGUUGUUGUGGGCUUGAAACAACAGAGGAUUGAGCAUCA
B12: chr12:52430540:52430705:-|CDS|ENSG00000170454|control|control|control (ssRNA)
RNA: GGGAGUUCUACAGUCCGACGAUCCAGGUCGGUGACACAUCCGUGGUGCUGUCCAUGGACAACAACCGCAACCUGGACCUGGAUAGUAUCAUCGCCGAGGUCAAAGCACAAUACGAGGACAUUGCCAACCGCAGCCGGGCCGAGCAACAGAGGAUUGAGCAUCA
B13: chr22:31279490:31279591:+|3pUTR|ENSG00000182541|msi1|FALSE|unique (ssRNA)
RNA: GGGAGUUCUACAGUCCGACGAUCAGCAGCUUGGGCUGGGAAGAGGUGGUGGCAGAGUCUCAAAGCUGAGAUGCUGAGAGAGAUAGCUCCCUGAGCUGGGCCAUCUGACUUCUACCUCCCAUGUUUGCUCUCCCAACUCAUUAGCAACAGAGGAUUGAGCAUCA
B14: chr7:158734047:158734148:-|3pUTR|ENSG00000117868|msi1_unk|FALSE|overlapping (ssRNA)
RNA: GGGAGUUCUACAGUCCGACGAUCCUACCCGGAACACACCCUCUCACAGACGUACCAAUGUUAUUUUUAUAAUUUCAUGGAUUUAGUUAUACAUACCUUAAUAGUUUUAUAAAAUUGUUGACAUUUCAGGCAAAUUUGGCCAAUCAACAGAGGAUUGAGCAUCA
B15: chr3:133826890:133826991:-|3pUTR|ENSG00000154917|unk|total|mutant (ssRNA)
RNA: GGGAGUUCUACAGUCCGACGAUCUUUGAACGUGUUUCAGAUGUCAUGUGUUCCGUUUUUAUAUGUGUGUACAUAAUUAUAUACCGAGACCGACUUGUGUAUACACCUUCCACAAACACAUCCUCACGGAGAUACAUGUGCUCACAACAGAGGAUUGAGCAUCA
B16: chr9:15474029:15474130:-|CDS|ENSG00000164985|unk|total|mutant (ssRNA)
RNA: GGGAGUUCUACAGUCCGACGAUCAAGAAAAGAGCCGGAUAAAAAAGAGGGGAAGAAAGAAGUUGAAUCAAAAAGGAAAAAUUCCGCUAAAACAGGGGUUACUUCAACCUCCGAUUCUGAAGAAGAAGGAGAUGAUCAAGAAGGCAACAGAGGAUUGAGCAUCA
B17: chr10:15513953:15517157:-|three_prime_utr|ENSG00000077943|control|control|control (ssRNA)
RNA: GGGAGUUCUACAGUCCGACGAUCUAAGUUGCAGUCCAGAUCAAUCCAGCAUAAGUUGCAGAGAUGAAAUGUCUGAAUCACUAUAGAAUUUACAAGGUGAACUAAGGUGAAAUGACUGAUUUACUAUAGAACUUAGAACUAAGACAACAGAGGAUUGAGCAUCA
B18: chr3:179334110:179334217:+|CDS|ENSG00000121864|unk|total|mutant (ssRNA)
RNA: GGGAGUUCUACAGUCCGACGAUCACAUACAAAAAUUUUUCCUCAUGUUUGUGAUGACUGUGGGAAAGGCUUUUCAAGUAUGCCCGAAUAUUGCAAGCAUUUAAAUUCACAUUUAUCUGAAGGGAUUUAUUUAUGUCAAUAUUGCAACAGAGGAUUGAGCAUCA
B19: chr1:51919672:51919773:-|3pUTR|ENSG00000169213|unk|FALSE|unique (ssRNA)
RNA: GGGAGUUCUACAGUCCGACGAUCUAUUCUUUGCCUGCCCCUGGGGUUCUCUGCAGAUGGUCCCAGUAAUAGAUACUCAGCACUAGACUAACAUAACAGGUCACUACACGGGUGCAGAAUCACUUUACAAAAGAAGACUCUGUUCAACAGAGGAUUGAGCAUCA
B20: chr8:23842656:23842757:-|3pUTR|ENSG00000159167|msi1|FALSE|unique (ssRNA)
RNA: GGGAGUUCUACAGUCCGACGAUCCCCCAAACUUAUGGACACUGCCUUAGCCUCUUGGAAAUCAGGUAGACCAUAUUCUAAGUUAGACUCUUCCCCUCCCUCCCACACUUCCCACCCCCAGGCAAGGCUGACUUCUCUGAAUCACAACAGAGGAUUGAGCAUCA
B21: chr15:99715702:99716401:-|three_prime_utr|ENSG00000183060|control|control|control (ssRNA)
RNA: GGGAGUUCUACAGUCCGACGAUCUGUUGACUACAAACAUUUACCAAAUACAUAAAUCUCUUUUAAAAAAGCCAUUUUAAAUAUAGCAAAGCAGUGUCUUCUUGCACAGCAAAGUGAAGAAAGUUUCUACAGAGAAAUAGAAGUCAACAGAGGAUUGAGCAUCA
B22: chr9:69711526:69711627:-|3pUTR|ENSG00000188647|unk|FALSE|unique (ssRNA)
RNA: GGGAGUUCUACAGUCCGACGAUCGAACUGCUGUAGUCUUCUGCAAUCAGUCUCUGUAUUGGUAUAUCCAGUACUAUCGGGUUUAGGUUCUUUUUAUUUUUCCUUAAAUCUUACUUGUUUCUAGCGUCUUAAGAGUGGUAAUGGCAACAGAGGAUUGAGCAUCA

The binders below were run against MSI1 full-length (mouse, UniProt Q61474 1-362) (assay: nsRBNS (natural sequence RNA bind-n-seq); RBNS binding buffer (assumed for nsRBNS): 25 mM Tris pH 7.5, 150 mM KCl, 3 mM MgCl2, 0.01% Triton X-100, 500 ug/ml BSA, 20 U/ml SUPERase-In, 4 C; UNK is unkempt and MSI1 is Musashi-1; names of the RNAs are library labels; protein concentration not given here; high values mean tight binding).
UniProt Q61474, sequence (Q61474 whole entry): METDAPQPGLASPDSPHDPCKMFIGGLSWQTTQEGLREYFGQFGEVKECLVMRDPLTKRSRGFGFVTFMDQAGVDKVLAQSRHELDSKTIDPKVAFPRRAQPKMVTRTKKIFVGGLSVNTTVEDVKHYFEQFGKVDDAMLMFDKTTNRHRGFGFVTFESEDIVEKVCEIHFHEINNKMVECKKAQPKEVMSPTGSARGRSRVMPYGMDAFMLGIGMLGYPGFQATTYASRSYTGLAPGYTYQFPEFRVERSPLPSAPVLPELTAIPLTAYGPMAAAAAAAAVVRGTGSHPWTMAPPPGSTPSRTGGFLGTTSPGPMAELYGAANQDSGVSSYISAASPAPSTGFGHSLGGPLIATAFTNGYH

Binder | binding signal [enrichment R]
B1 | 0.688
B2 | 0.451
B3 | 0.275
B4 | 0.6
B5 | 0.593
B6 | 0.408
B7 | 1.21
B8 | 0.46
B9 | 2.71
B10 | 0.389
B11 | 0.429
B12 | 0.352
B13 | 0.589
B14 | 20.8
B15 | 0.348
B16 | 0.513
B17 | 0.711
B18 | 0.264
B19 | 0.896
B20 | 1.03
B21 | 3.04
B22 | 3.44

Reference: article PMC12136788
